Measured values as given in publication PMC2954335.

Biological target: maCTLA-4 (mammalian-expressed, deglycosylated human CTLA-4 homodimer, extracellular domain, amino acids 1-126) (human) (UniProt P16410)
Assay: SEC; gel filtration of purified maCTLA-4; nonreducing SDS-PAGE of the main peak, around 25 kDa; disulfide-bonded homodimer

- stoichiometry N: 2
Substance: maCTLA-4 (mammalian-expressed, deglycosylated human CTLA-4 homodimer, extracellular domain, […]) (a stretch of the chain, chain not printed) (domain or fragment; interchain disulfide at cysteine 122; deglycosylated with endo Hf; interchain disulfide at cysteine 122; deglycosylated with endo Hf; other documents disagree on this pair)
